{"source": "the BET-seq Pho4 binding data (Le et al. 2018)", "note": "The list shows a part of the results. The energies were worked out here from pooled read counts, against the library average; single values are noisy.", "data": [{"target": "T1, Pho4 (S. cerevisiae) (UniProt P07270)", "T1 sequence": "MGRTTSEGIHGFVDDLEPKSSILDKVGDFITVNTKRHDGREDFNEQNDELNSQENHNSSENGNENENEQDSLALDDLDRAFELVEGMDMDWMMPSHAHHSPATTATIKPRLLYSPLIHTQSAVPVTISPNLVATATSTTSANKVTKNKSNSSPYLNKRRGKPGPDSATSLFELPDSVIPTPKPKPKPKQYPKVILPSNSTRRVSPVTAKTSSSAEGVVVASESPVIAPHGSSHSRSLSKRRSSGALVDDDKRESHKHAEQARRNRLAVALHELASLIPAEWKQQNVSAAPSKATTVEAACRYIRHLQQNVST", "experiment": "relative binding free energy (BET-seq); higher = weaker binding", "conditions": "reference: library average", "units": {"relative binding free energy": "kcal/mol"}, "values": [{"sequence": "TGTTTCACGTGCATGC", "relative binding free energy": 0.13}, {"sequence": "TGTTACACGTGAGAGC", "relative binding free energy": 0.33}, {"sequence": "TGGTGCACGTGAACAG", "relative binding free energy": 0.36}, {"sequence": "TTGTCCACGTGCGGTG", "relative binding free energy": -0.02}, {"sequence": "TGTCGCACGTGTTGGC", "relative binding free energy": -0.23}, {"sequence": "GGTGTCACGTGTGGGA", "relative binding free energy": 0.23}, {"sequence": "GTTGGCACGTGGAATT", "relative binding free energy": -0.1}, {"sequence": "TACTGCACGTGTATTG", "relative binding free energy": -0.01}, {"sequence": "CTGTTCACGTGTCAGT", "relative binding free energy": 0.17}, {"sequence": "AATATCACGTGTTCGG", "relative binding free energy": 0.17}, {"sequence": "TTTTTCACGTGCGCTA", "relative binding free energy": 0.23}, {"sequence": "CTTGGCACGTGGCAGG", "relative binding free energy": -0.24}, {"sequence": "GTGTTCACGTGGATTA", "relative binding free energy": 0.2}, {"sequence": "TCGTGCACGTGGGGAG", "relative binding free energy": -0.18}, {"sequence": "GTAGGCACGTGGCACG", "relative binding free energy": -0.04}, {"sequence": "ATCGGCACGTGAGTCG", "relative binding free energy": 0.2}, {"sequence": "AATAACACGTGTGGGC", "relative binding free energy": 0.04}, {"sequence": "ATGCGCACGTGTAAGG", "relative binding free energy": -0.07}, {"sequence": "GGGGGCACGTGATGTC", "relative binding free energy": -0.01}, {"sequence": "TGGACCACGTGGGATT", "relative binding free energy": -0.08}, {"sequence": "TATAGCACGTGGGATA", "relative binding free energy": -0.23}, {"sequence": "TGGGGCACGTGCAGCT", "relative binding free energy": -0.05}, {"sequence": "CTTTTCACGTGAGTGG", "relative binding free energy": 0.38}, {"sequence": "CTGTTCACGTGGGAAG", "relative binding free energy": 0.15}, {"sequence": "TTAATCACGTGTTTCG", "relative binding free energy": 0.26}, {"sequence": "TCAGGCACGTGTAAGG", "relative binding free energy": 0.07}, {"sequence": "TGGAACACGTGTTGAA", "relative binding free energy": 0.08}, {"sequence": "CTCATCACGTGGTGGT", "relative binding free energy": 0.13}, {"sequence": "AGGCCCACGTGGTAGT", "relative binding free energy": -0.1}, {"sequence": "TGGGGCACGTGAACCG", "relative binding free energy": 0.07}, {"sequence": "CATGTCACGTGAGAGT", "relative binding free energy": 0.3}, {"sequence": "TGATGCACGTGGATGT", "relative binding free energy": 0.08}, {"sequence": "GGTATCACGTGGCGCG", "relative binding free energy": 0.14}, {"sequence": "CTGATCACGTGAAGGT", "relative binding free energy": 0.33}, {"sequence": "GTATTCACGTGTCGTG", "relative binding free energy": 0.18}, {"sequence": "TTGAACACGTGGTTAT", "relative binding free energy": 0.09}, {"sequence": "TAGGGCACGTGGTGGT", "relative binding free energy": -0.12}, {"sequence": "GGAAACACGTGTATAT", "relative binding free energy": 0.06}, {"sequence": "ATAGACACGTGCGTGG", "relative binding free energy": -0.06}, {"sequence": "GGCTGCACGTGTGGCC", "relative binding free energy": 0.19}, {"sequence": "GTAGTCACGTGGGGCA", "relative binding free energy": -0.07}, {"sequence": "GTACACACGTGTGGTA", "relative binding free energy": 0.19}, {"sequence": "CGGGGCACGTGTAGTC", "relative binding free energy": -0.07}, {"sequence": "TTCGGCACGTGTGGAC", "relative binding free energy": 0.11}, {"sequence": "GAAGACACGTGGTTTT", "relative binding free energy": 0.18}, {"sequence": "GGCGTCACGTGTGTGT", "relative binding free energy": 0.27}, {"sequence": "GTGCGCACGTGAGTGC", "relative binding free energy": 0.21}, {"sequence": "TTTTACACGTGGCTGC", "relative binding free energy": 0.1}, {"sequence": "GGTGCCACGTGGTGAA", "relative binding free energy": -0.05}, {"sequence": "ATATGCACGTGCGAGT", "relative binding free energy": -0.06}, {"sequence": "GTGTTCACGTGCTAGA", "relative binding free energy": 0.24}, {"sequence": "AAATGCACGTGTGGGG", "relative binding free energy": 0.02}, {"sequence": "TCAGTCACGTGTAGTG", "relative binding free energy": 0.12}, {"sequence": "GTGTGCACGTGACGAG", "relative binding free energy": 0.21}, {"sequence": "GACAGCACGTGTTTGT", "relative binding free energy": -0.04}, {"sequence": "TCTGACACGTGGGTGT", "relative binding free energy": -0.08}, {"sequence": "ATTATCACGTGTTGGC", "relative binding free energy": 0.09}, {"sequence": "GGTCGCACGTGGGCGA", "relative binding free energy": -0.25}, {"sequence": "TTCTACACGTGATTTT", "relative binding free energy": 0.2}, {"sequence": "GTGTTCACGTGGGCCT", "relative binding free energy": 0.15}, {"sequence": "TTGTTCACGTGATATT", "relative binding free energy": 0.4}, {"sequence": "GCGGTCACGTGAGTAG", "relative binding free energy": 0.39}, {"sequence": "CATTGCACGTGGTATT", "relative binding free energy": -0.1}, {"sequence": "TTGTGCACGTGCAGTA", "relative binding free energy": -0.03}, {"sequence": "TGCGTCACGTGGGCGT", "relative binding free energy": -0.07}, {"sequence": "TTAGGCACGTGAGGAG", "relative binding free energy": 0.25}, {"sequence": "GTACACACGTGTCGTG", "relative binding free energy": 0.14}, {"sequence": "CTGGTCACGTGTGTTC", "relative binding free energy": 0.08}, {"sequence": "TGGGTCACGTGACATT", "relative binding free energy": 0.12}, {"sequence": "ATGTACACGTGCGGTT", "relative binding free energy": 0.2}, {"sequence": "AGGATCACGTGTTCTG", "relative binding free energy": -0.02}, {"sequence": "GTAAGCACGTGGAGTA", "relative binding free energy": -0.11}, {"sequence": "CATTTCACGTGATAGG", "relative binding free energy": 0.27}, {"sequence": "AGGGCCACGTGAGCTG", "relative binding free energy": 0.13}, {"sequence": "TCGTGCACGTGTTTTA", "relative binding free energy": -0.02}, {"sequence": "ATGTCCACGTGTTTTA", "relative binding free energy": -0.01}, {"sequence": "GATTTCACGTGGATAT", "relative binding free energy": 0.31}, {"sequence": "GTCGACACGTGGGTGA", "relative binding free energy": -0.07}, {"sequence": "GTGGTCACGTGAGTCG", "relative binding free energy": 0.37}, {"sequence": "TGGTGCACGTGTCTGT", "relative binding free energy": -0.03}, {"sequence": "AAGTACACGTGGTGGT", "relative binding free energy": -0.01}, {"sequence": "GTGGGCACGTGGTTTG", "relative binding free energy": -0.04}, {"sequence": "TTGACCACGTGGTGGC", "relative binding free energy": 0}, {"sequence": "CAAAGCACGTGGGGTG", "relative binding free energy": -0.3}, {"sequence": "AATAGCACGTGGTGGC", "relative binding free energy": -0.15}, {"sequence": "TACGTCACGTGTGATG", "relative binding free energy": 0.07}, {"sequence": "TGGTGCACGTGAAAGT", "relative binding free energy": 0.3}, {"sequence": "TGCTTCACGTGTGGGG", "relative binding free energy": 0.25}, {"sequence": "TTAACCACGTGGGTGT", "relative binding free energy": -0.2}, {"sequence": "TGCTACACGTGAAGGG", "relative binding free energy": 0.3}, {"sequence": "AGTACCACGTGAAGGG", "relative binding free energy": 0.22}, {"sequence": "TGGCGCACGTGTAGAG", "relative binding free energy": 0}, {"sequence": "TTAATCACGTGACGTT", "relative binding free energy": 0.19}, {"sequence": "GGTAGCACGTGGGGCC", "relative binding free energy": -0.12}, {"sequence": "GGGCTCACGTGTCGGG", "relative binding free energy": 0.18}, {"sequence": "GTTCACACGTGGGCGG", "relative binding free energy": -0.03}, {"sequence": "AGATTCACGTGGGTGA", "relative binding free energy": 0.12}, {"sequence": "TGCAACACGTGTGGAG", "relative binding free energy": 0.06}, {"sequence": "TTTTGCACGTGTTGTC", "relative binding free energy": 0.08}, {"sequence": "AGGCGCACGTGAGTTT", "relative binding free energy": 0.06}, {"sequence": "TGATGCACGTGGGCTA", "relative binding free energy": -0.13}, {"sequence": "AGAAGCACGTGATAGT", "relative binding free energy": 0.22}, {"sequence": "AGGTTCACGTGGGAAT", "relative binding free energy": 0.26}, {"sequence": "AATTACACGTGTATGG", "relative binding free energy": -0.03}, {"sequence": "CGGCTCACGTGGTGGC", "relative binding free energy": 0.18}, {"sequence": "AATCGCACGTGTTTTG", "relative binding free energy": 0.21}, {"sequence": "ATGTACACGTGTATGC", "relative binding free energy": 0.08}, {"sequence": "GACCTCACGTGGGGGG", "relative binding free energy": -0.06}, {"sequence": "GCTTTCACGTGATGGA", "relative binding free energy": 0.43}, {"sequence": "TCGTGCACGTGTTAAG", "relative binding free energy": 0.07}, {"sequence": "CAATACACGTGTTTGT", "relative binding free energy": 0.04}, {"sequence": "TTTGCCACGTGTCGGT", "relative binding free energy": -0.1}, {"sequence": "CATGACACGTGGGAGG", "relative binding free energy": -0.02}, {"sequence": "GGTTGCACGTGGGAAG", "relative binding free energy": 0.05}, {"sequence": "GTTAACACGTGGTTTG", "relative binding free energy": 0.02}]}]}
